Measurements as given in the supplement of paper PMC10369915.
The list shows a part of the results. No stated cut-off is given here; in the data, active = 3.2 or more and inactive = the rest. Only a few entries rise above the background.

How the values were obtained:
Test in all cases: enrichment score (SH2-bound / input frequency) (ratio); bacterial display of known human phosphotyrosine sites (pTyr-Var adds point mutants) read by sequencing; higher = stronger binding; tyrosines were phosphorylated by kinases first
Conditions in all cases: peptide library: pTyr-Var
SHP2 C-SH2 domain E139D = target: SHP2 C-SH2 domain E139D
[1] = target: SHP2 C-SH2 domain wild-type
SHP2 N-SH2 domain L43F = target: SHP2 N-SH2 domain L43F
SHP2 N-SH2 domain T42A = target: SHP2 N-SH2 domain T42A
SHP2 N-SH2 domain T52S = target: SHP2 N-SH2 domain T52S
[2] = target: SHP2 N-SH2 domain wild-type
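Further: displayed peptides selected on beads carrying the immobilized SH2 domain, with library peptides lacking any tyrosine serving as negative controls.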

Binder	enrichment score (SHP2 C-SH2 domain E139D)	enrichment score [1]	enrichment score (SHP2 N-SH2 domain L43F)	enrichment score (SHP2 N-SH2 domain T42A)	enrichment score (SHP2 N-SH2 domain T52S)	enrichment score [2]
TGDFGYRAPGY [TNS2_Y668]	inactive: 0.416	inactive: 0.515	inactive: 0.617	inactive: 0.46	inactive: 0.499	inactive: 0.633
TGDFGYRAPGF [TNS2_Y668_YF]	inactive: 0.626	inactive: 0.6	inactive: 0.575	inactive: 0.45	inactive: 0.629	inactive: 0.778
YRAPGYREVVI [TNS2_Y673]	inactive: 0.982	inactive: 0.746	inactive: 1.06	inactive: 0.955	inactive: 1.28	inactive: 0.819
FRTPGYREVVI [TNS2_Y673_A670T_YF]	inactive: 1.23	inactive: 1.08	inactive: 1.57	inactive: 1.4	inactive: 1.92	inactive: 1.11
FFRRHYPLTTL [TNS4_Y644]	inactive: 0.353	inactive: 0.261	inactive: 0.32	inactive: 0.382	inactive: 0.293	inactive: 0.328
SVTCTYSPALN [TP53_Y126]	inactive: 0.858	inactive: 1.55	inactive: 1.1	inactive: 0.993	inactive: 0.906	inactive: 1.54
SVTCTYSPGLN [TP53_Y126_A129G]	inactive: 1.01	inactive: 1.76	inactive: 1.53	inactive: 1.14	inactive: 1.05	inactive: 1.95
SVTCTYSPTLN [TP53_Y126_A129T]	inactive: 1.03	inactive: 1.36	inactive: 1.21	inactive: 1.17	inactive: 0.955	inactive: 1.82
SVTSTYSPALN [TP53_Y126_C124S]	inactive: 0.6	inactive: 0.446	inactive: 0.594	inactive: 0.572	inactive: 0.681	inactive: 0.758
SVTCTYSPAPN [TP53_Y126_L130P]	inactive: 0.945	inactive: 1.06	inactive: 0.911	inactive: 0.74	inactive: 0.779	inactive: 1.44
SVTCTYSPALH [TP53_Y126_N131H]	inactive: 0.803	inactive: 1.38	inactive: 0.837	inactive: 0.741	inactive: 0.663	inactive: 1.38
SVTCTYSPALT [TP53_Y126_N131T]	inactive: 1.21	inactive: 1.57	inactive: 1.13	inactive: 1	inactive: 0.709	inactive: 1.95
SVTCTYSPALY [TP53_Y126_N131Y]	inactive: 0.829	inactive: 1.22	inactive: 0.991	inactive: 0.777	inactive: 0.806	inactive: 1.36
SVTCTYSLALN [TP53_Y126_P128L]	inactive: 0.979	inactive: 1.14	inactive: 0.914	inactive: 0.628	inactive: 0.824	inactive: 1.3
SVTCTYSRALN [TP53_Y126_P128R]	inactive: 0.74	inactive: 1.22	inactive: 0.755	inactive: 0.737	inactive: 0.718	inactive: 1.26
FVTCTYSPALN [TP53_Y126_S121F]	inactive: 0.817	inactive: 1.04	inactive: 0.787	inactive: 0.5	inactive: 0.66	inactive: 1.04
SVTCTYCPALN [TP53_Y126_S127C]	active: 3.26	active: 3.34	active: 3.39	inactive: 2.43	inactive: 3.07	inactive: 2.53
SVTCTYFPALN [TP53_Y126_S127F]	inactive: 0.897	inactive: 1.44	inactive: 1.19	inactive: 0.808	inactive: 0.896	inactive: 1.52
SVTCTYTPALN [TP53_Y126_S127T]	inactive: 0.506	inactive: 1.03	inactive: 0.673	inactive: 0.723	inactive: 0.635	inactive: 1.2
